According to the supplement of paper PMC3334620:
The full ranking holds about 33,000 sequences; the median of “E-score (-0.5 to 0.5)” is about -0.012, and the highest 2% start at about 0.29. The list shows a part of the results.

Target: T1, Ybr033w (UniProt P38073)
T1 sequence: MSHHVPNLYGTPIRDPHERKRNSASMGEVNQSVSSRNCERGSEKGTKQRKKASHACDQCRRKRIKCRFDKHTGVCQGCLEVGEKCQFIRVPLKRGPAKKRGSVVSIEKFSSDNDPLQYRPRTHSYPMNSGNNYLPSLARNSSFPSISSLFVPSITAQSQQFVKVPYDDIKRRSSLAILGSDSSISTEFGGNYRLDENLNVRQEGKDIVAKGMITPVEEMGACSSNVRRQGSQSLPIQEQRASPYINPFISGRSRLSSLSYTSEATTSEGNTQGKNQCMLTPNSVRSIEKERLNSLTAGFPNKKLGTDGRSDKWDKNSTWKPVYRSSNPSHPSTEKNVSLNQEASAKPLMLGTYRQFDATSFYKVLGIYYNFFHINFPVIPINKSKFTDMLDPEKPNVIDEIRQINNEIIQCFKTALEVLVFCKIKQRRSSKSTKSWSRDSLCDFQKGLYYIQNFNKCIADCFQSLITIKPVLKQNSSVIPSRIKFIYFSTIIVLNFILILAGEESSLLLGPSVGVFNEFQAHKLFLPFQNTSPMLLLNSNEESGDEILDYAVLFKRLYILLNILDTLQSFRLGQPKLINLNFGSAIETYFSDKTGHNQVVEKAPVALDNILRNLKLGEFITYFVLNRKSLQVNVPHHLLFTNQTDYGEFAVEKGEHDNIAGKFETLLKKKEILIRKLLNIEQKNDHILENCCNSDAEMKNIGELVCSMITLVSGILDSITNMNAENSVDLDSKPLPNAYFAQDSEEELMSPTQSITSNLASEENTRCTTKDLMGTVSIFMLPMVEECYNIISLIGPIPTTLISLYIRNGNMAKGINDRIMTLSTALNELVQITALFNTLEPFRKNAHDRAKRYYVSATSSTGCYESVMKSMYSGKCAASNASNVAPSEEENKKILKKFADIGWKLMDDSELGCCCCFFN
Test: PBM E-score (8-mer binding enrichment) (E-score (-0.5 to 0.5)); higher = stronger / more preferred TF binding; most listed sequences are background and not binding sites
Details: protein concentration: 200 nM; construct: GST-full length
How it was run: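 Yeast transcription factors carrying a GST tag, as full-length proteins or DNA-binding domains, were produced by PURExpress in vitro transcription/translation. About 100-200 nM protein was applied to universal all-10-mer Agilent arrays, double-stranded by primer extension on fresh or once-stripped slides. Bound protein was detected with fluorescent anti-GST, and scans were normalised with masliner. The Universal PBM Analysis Suite gave each ungapped eight-base word, pooled with its reverse complement, an E-score, a modified Wilcoxon-Mann-Whitney statistic.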

Sequence | PBM E-score
ATCACGCG | 0.0849
ATACTAGG | 0.0434
AAAAGGTG | 0.0842
AACAAAAA | 0.212
AGGTTAGG | 0.00933
ACCCAGGT | -0.365
CGCAACTC | 0.091
GCGAGTCA | -0.0811
TAGCACCA | 0.124
CTTGCGAA | 0.212
ACTCGTTC | -0.003
ATCGTCGG | -0.176
ACTGCGTC | -0.0948
GAACGCAA | -0.0674
ACGGAAAT | 0.313
CTAATAAC | 0.216
AGTATAGG | -0.0308
CATGCAAC | 0.0412
AAAAGACC | -0.141
CCAGCGAC | -0.116
ATGCCGCC | -0.209
CTTGCATC | -0.144
AGCGACTA | 0.0503
CTCGCGCC | -0.145
ACATCCTA | 0.0983

Sequence | PBM E-score
CAAGGCTA | 0.0421
ACTCTTTA | -0.0522
GTGCGTGA | 0.102
AATGCGTA | 0.142
CTAGTGTC | 0.0353
AATTAATT | 0.214
GTTCTCGA | -0.00386
AGGACGTG | -0.195
AGGCCCCC | -0.394
AATCCCCG | 0.00375
ATCCGGGC | -0.00836
TAAGTCGA | 0.0883
GTTCGATA | 0.106
AGAGAGTG | 0.0856
ACCTTGGA | -0.0302
AAAGGTCC | -0.128
ACGTGAGA | -0.103
GCTTTTTA | 0.142
ACTTATGA | 0.171
CTGGATAA | 0.316
AGTAAGGC | -0.00682
CCGGAAGA | 0.404
GAGTTGGC | 0.00816
CCCCAATA | -0.0487
AACCGACG | -0.0367

Sequence | PBM E-score
AAACCATC | 0.206
AGTTCTAA | 0.137
AGTGACTC | -0.0523
ACCACGCA | -0.0922
CATACGCC | -0.00989
ACGACGCG | 0.0415
ACGTACAG | -0.2
GCAGCAGC | -0.206
AGGAGATG | -0.137
TAGACTAA | 0.0338
GCACATCA | 0.0666
CACTGTGG | -0.118
GGGCCAAA | -0.0948
CGTTGATA | 0.076
ATTCAATC | 0.187
GTTCCAGA | 0.187
ACGTTACC | -0.221
TGGGTTAA | 0.0191
CCAGGGAA | -0.267
GTGTCACA | 0.0387
CGATGGGA | -0.0352
ACACCTGG | -0.242
GAAGGTCC | -0.242
ATGGTTCG | 0.0191
GGTCAATA | -0.0226

Sequence | PBM E-score
TCTCACCA | 0.133
GCGGATCA | 0.255
CATATGCC | 0.0243
ATTTGCCA | -0.068
AGATAACT | 0.103
ACCGCAAT | 0.165
CATCTTGC | -0.00719
CCACAGCA | -0.0457
CAAAAATC | 0.236
ATGCTAAA | 0.0741
AGCGTAAA | 0.17
AACACGCG | 0.137
AAAATTTG | 0.263
GGTGCGTA | -0.16
ATGGTGTA | 0.108
AGCGCTCC | -0.181
GGAGCACA | -0.0835
CTGAGAGA | -0.152
ATCAGTGC | -0.0292
GTAACCGA | -0.0166
ATGAAGTG | 0.0211
ACCTCCAG | -0.198
ACGGGTAG | -0.195
CGACAGGC | -0.21
CAGGAACG | -0.0646

Sequence | PBM E-score
ATGTACGA | 0.136
AAGCTATC | 0.168
AAAAGCGT | 0.0775
GCCATGAC | -0.131
GTAATTCA | 0.211
AACTGTAC | -0.082
GTGAATCA | 0.042
CTGATGTA | 0.0171
TCAATGCA | -0.0957
AGCGAATA | 0.0291
AGACGTCT | -0.272
AAATGTGT | 0.179
ACCTTGAG | -0.00395
CAGAATGG | 0.0185
ACCAGGGT | -0.0923
GAACAGTA | 0.118
GGGTAAAC | 0.113
GTTATACA | 0.071
CCGGCCCC | -0.325
GGTACCGA | -0.414
ATTGTACC | 0.0876
CTCACGGC | -0.261
CACAGCTG | -0.159
TACGCCGA | -0.162
GGCACTTA | -0.293

Sequence | PBM E-score
AAATAGGG | -0.0125
AGTCTTAG | -0.163
CAGTTAGG | 0.031
CTCGGTGC | -0.157
GAAAAACC | 0.386
AAATTTAC | 0.263
CGCACTGC | -0.129
CGTTTAAG | 0.0639
AAGCGGGG | -0.264
ACGCAGGG | -0.091
AACCATCG | 0.149
AGCTCAGC | -0.133
GTGATAAC | -0.00385
ACAAATCA | 0.176
AGAGATGG | 0.0736
CCCCAGGG | -0.29
TAGAGAGA | -0.0355
GGATCACA | -0.0516
GCGTCGCC | -0.0716
CAATTGCC | 0.0461
CACCGCCA | -0.0315
CTCCAACC | 0.0773
ATGCCCAC | -0.0596
CGGTTCTA | 0.0953
CTCGAAAA | 0.00089

Sequence | PBM E-score
CAAAAACG | 0.173
CAACCAAG | 0.109
CGGGGGCA | -0.384
GAACGATA | -0.0645
ACATGAGC | -0.125
AAGCCCGG | -0.0996
AGATACCC | -0.0709
CGCTCATA | -0.0772
AGTAACAG | 0.242
GACGAATC | 0.159
AAACCCTA | -0.0238
CAGACCCC | -0.316
ACCTCTGG | -0.147
ATCATGCG | -0.0149
CGGAGCAC | -0.13
CGCAAGGC | -0.0931
ATCCTACA | 0.0217
CGCGGGTC | -0.0494
ATTCAAAG | 0.133
ACGGGGAG | -0.179
CGTAACAG | 0.0429
CCTTAGTA | -0.0356
CAACGACA | 0.00165
CAGACCTA | 0.0903
AACTCCGC | -0.219

Sequence | PBM E-score
AAATTCAC | 0.241
AGTTCGAG | 0.0338
CACCGAAG | 0.0209
ATGATCCC | 0.244
TGGTTGAA | 0.0153
GGCTAAAC | -0.15
GATAAATA | 0.4
GGATTATA | 0.244
GGGCGCAA | -0.163
AACGTCAC | -0.00251
TGTCATAA | 0.08
GCGACTCC | -0.197
ATTCCTAA | 0.201
CTCTGCAA | 0.0809
CGACGTTC | -0.245
AAACGAAG | 0.159
GATCAAAA | 0.296
GTGCGCCA | -0.143
TGGCTAAA | -0.0621
GTAAAAAA | 0.0961
AACTCTTG | 0.059
AACACGGC | 0.0031
AGTCTGGG | -0.178
ATAAGGCC | -0.143
AGACAGAT | -0.0372

Sequence | PBM E-score
AGATGGGA | -0.12
AGTCGATA | 0.0843
AGCAATGC | 0.0566
ACCAGTCT | -0.0569
CACTAATG | 0.0973
ACTTGAAC | 0.137
ACTCCCCC | -0.323
ACGTCTGG | -0.129
AAGTATAC | 0.197
GTGACGCA | -0.255
CGTCTCTC | -0.0119
ACCGGTTG | -0.125
ACTCTTCA | 0.0741
CATAATGG | -0.116
GTCGAATA | 0.114
CCGTTACC | -0.103
CACAGCGA | 0.179
GATATGAA | 0.261
AGACGGAG | -0.0783
